Laboratory results as given in PubChem BioAssay AID924 (National Center for Advancing Translational Sciences (NCATS), 2007).
Several values for one entry are separate records, joined by “and”; a condition that tells them apart may be missing. Equal entries are not always repeated. Hit rate of the full screen: of about 130,000 compounds, about 1,200 (0.92%) were called active. The shares of active, inactive and inconclusive entries below differ from those in the screen. Calls come from the whole dose curve; as a rule, active = well fitted cell-killing curve with a large enough effect; inconclusive = small, poorly fitted or top-dose-only effect; inactive = no such curve, though single readings can be large or run the other way. Potencies of inconclusive entries are doubtful fits and often do not repeat. More than one record can exist for a structure, and the calls need not agree.
Potency is the fitted concentration of half-maximal effect; tags give direction and shape of the fitted curve.

Assay: qHTS Screen for Compounds that Selectively Target Cancer Cells with p53 Mutations: Cytotoxicity of p53ts Cells at the Permissive Temperature; note: nearly all actives have a fitted effect of over 55% in size
Settings: H1299-p53A138V at 32C, ATP luminescence viability, 24 h; series mostly up to 46.1 µM
How it was run: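 ATP-content luminescence (ATPlite) read-out after 24 h compound exposure at 32C in H1299-p53A138V cells (600/well). Tested up to 46 uM. Normalized to DMSO (0%) and 100 uM tamoxifen (100% killing); Hill-fit AC50.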
With `COc1cccc(CNC(=O)Cn2c(=O)nc(-c3ccccc3F)c3cc(Cl)ccc32)c1` the Potency was inconclusive: 25.1 µM [cytotoxic, single point].
With `COc1ccc(-c2nn(C)c3sc(C(=O)N4CCN(c5cccc(Cl)c5)CC4)cc23)cc1OC` the Potency was “inactive”.
In the case of `Cc1ccc(NS(=O)(=O)c2ccc3[nH]c4c(c3c2)CCCCC4)cc1`, the Potency is reported as “inactive”.
For `CCc1ccc(OCC(=O)Nc2ccc(Cl)c(-c3nc4ncccc4o3)c2)cc1`, the Potency was “inactive”.
With `N=c1c2c(-c3ccccc3)c(-c3ccccc3)oc2ncn1CCN1CCOCC1` the Potency was inconclusive: 31.6 µM [cytotoxic, single point].
For `CC(C)Oc1cccc(-c2cc(C(=O)N3CCN(S(C)(=O)=O)CC3)c3ccccc3n2)c1`, the Potency was inconclusive: 15.8 µM [cytotoxic, partial curve].
In the case of `Cc1cccc(NC(=O)c2sc(NC(=O)c3ccco3)c(C#N)c2C)c1C`, the Potency is reported as “inactive”.
For `Cc1ccc(-n2ncc3c(N4CCCCCC4)ncnc32)cc1C`, the Potency was active: 10 µM.
For `CCOc1ccccc1N1CC(c2nc3ccccc3n2CCCCOc2cc(C)ccc2C)CC1=O` (stereo not drawn), the Potency was inconclusive: 31.6 µM [cytotoxic, single point].
In the case of `CN(C)c1ccc(-c2cncnc2NCCN2CCOCC2)cc1`, the Potency is reported as inconclusive: 31.6 µM [cytotoxic, single point].
In the case of `COc1cc(C(=O)Nc2ccc(OCc3cc(=O)n4cccc(C)c4n3)cc2)cc(OC)c1OC`, the Potency is reported as inconclusive: 12.6 µM [cytotoxic, single point].
For `CCCn1nc(C(=O)OCC(=O)Nc2ncc(Cl)c(C)c2Cl)c2ccccc2c1=O`, the Potency was “inactive”.
In the case of `COc1cccc(-c2cc(C(=O)Nc3ccc(F)cc3)[nH]n2)c1`, the Potency is reported as inconclusive: 7.94 µM [cytotoxic, partial curve].
For `CCOC(=O)CNc1ncnc2c1nnn2C`, the Potency was “inactive”.
In the case of `N#Cc1sc2nc(-c3ccccc3)cc(-c3ccco3)c2c1N`, the Potency is reported as “inactive”.
With `CC(C)OC(=O)CSc1nnc(-c2ccco2)n1N` the Potency was “inactive”.
For `Cc1cc(C)cc(OCCSc2nc(-c3ccc(C(C)(C)C)cc3)nc3cc(=O)[nH]n23)c1`, the Potency was inconclusive: 31.6 µM [cytotoxic, single point].
For `COCn1c(-c2ccc(OC)cc2)nc2ccccc21`, the Potency was active: 7.94 µM.
With `Cn1c(SCC(=O)N2CCOCC2)nc2sc3c(c2c1=O)CCCC3` the Potency was “inactive”.
In the case of `CSc1ccc2c(c1)[C@H](N1CCN(C)CC1)Cc1ccccc1S2`, the Potency is reported as active: 25.1 µM.
With `CCC1C(=O)n2nc(-c3ccccc3)cc2N=C1C` (stereo not drawn) the Potency was inconclusive: 15.8 µM [cytotoxic, partial curve].
For `COc1ccc(-c2cc(C(F)(F)F)nc(SCC(=O)Nc3ccc(C(C)=O)cc3)n2)cc1`, the Potency was “inactive”.
For `CCOC(=O)C1CCN(c2ncnc3c2c(-c2ccccc2)cn3-c2ccc(C)c(Cl)c2)CC1`, the Potency was inconclusive: 3.98 µM [cytotoxic, full curve, poor fit].
With `CCC(CC)(CC(=O)Nc1cccc(/C=C/c2nc(C3CCC3)cs2)c1)C(=O)O` the Potency was inconclusive: 25.1 µM [cytotoxic, partial curve].
With `CC(C)c1ccc(C2=CC(c3cccc(Cl)c3)n3c(nc4ccccc43)N2)cc1` (stereo not drawn) the Potency was inconclusive: 20 µM [cytotoxic, single point].
In the case of `CCc1cccc(NC(=O)Cn2c(=O)n(CCC(=O)NCc3ccccc3Cl)c(=O)c3sccc32)c1`, the Potency is reported as inconclusive: 31.6 µM [cytotoxic, single point].
In the case of `Cc1c(C(=O)O)cnc2cc(-c3ccc(Cl)cc3)nn12`, the Potency is reported as active: 10 µM.
In the case of `CCCn1c(C)cc(C(=O)COc2ncnc3sccc23)c1C`, the Potency is reported as inconclusive: 15.8 µM [cytotoxic, single point].
For `COc1ccc(-c2cn3cccnc3n2)cc1NC(=O)Nc1cc(C)ccc1C`, the Potency was active: 15.8 µM.
In the case of `COc1ccccc1C(=O)Nc1ccc2c(c1)OCO2`, the Potency is reported as inconclusive: 12.6 µM [cytotoxic, single point].
For `CCc1ccc(NC(=O)Nc2ccccc2OCc2cc(=O)n3ccccc3n2)cc1`, the Potency was inconclusive: 0.708 µM [cytotoxic, full curve].
In the case of `CC(=O)c1cccc(NC(=O)Nc2ccc(C(=O)N3CCOCC3)cc2)c1`, the Potency is reported as inconclusive: 35.5 µM [cytotoxic, partial curve].
In the case of `CC(C)(C)C(=O)Nc1ccc(-c2cn3ccsc3n2)cc1`, the Potency is reported as active: 0.631 µM.
In the case of `O=C(c1cc(-c2ccc(F)cc2)on1)N1CCCC1`, the Potency is reported as active: 15.8 µM.
In the case of `O=C(/C=C\C=C/c1ccc2c(c1)OCO2)N1CCCCC1`, the Potency is reported as inconclusive: 10 µM [cytotoxic, partial curve].
In the case of `CN(C)c1ncc2nc(CCc3ccccc3)c(=O)n(C3CC3)c2n1`, the Potency is reported as “inactive”.
For `O=C(C1CCC(C(=O)N2CCc3ccccc32)CC1)N1CCc2ccccc21` (stereo not drawn), the Potency was “inactive”.
In the case of `COc1cc(C(=O)OCC(=O)Nc2cc(C)on2)ccc1OCc1ccccc1Cl`, the Potency is reported as inconclusive: 31.6 µM [cytotoxic, single point].
For `Cc1ccc(NC2=C(NC(=O)c3ccccc3)C(=O)c3ccccc3C2=O)cc1Cl`, the Potency was inconclusive: 35.5 µM [cytotoxic, single point].
For `Brc1ccc(-c2noc(-c3ccccc3)n2)o1`, the Potency was inconclusive: 25.1 µM [cytotoxic, single point].
For `CCCn1nnc(NC(=O)c2ccc(Cl)cc2Cl)n1`, the Potency was inconclusive: 12.6 µM [cytotoxic, partial curve].
With `Fc1ccc(-c2cn3cc(Cc4ccccc4Cl)sc3n2)cc1` the Potency was active: 7.94 µM.
In the case of `Cc1cccc(CNc2nc(-c3c(C)noc3C)nc3ccccc23)c1`, the Potency is reported as inconclusive: 31.6 µM [cytotoxic, single point].
For `Cc1nc2ccccc2n1CCc1nc2c3ccccc3nc(SCC(=O)Nc3cccc(C(F)(F)F)c3)n2n1`, the Potency was inconclusive: 12.6 µM [cytotoxic, single point].
With `CCCc1nc2ccccc2c(=O)n1/N=C/c1ccc(O)cc1O` the Potency was “inactive”.
For `CCc1ccc2nc(NC(=O)c3cc(C)on3)sc2c1`, the Potency was inconclusive: 31.6 µM [cytotoxic, single point].
With `Cn1cc(Br)c(C(=O)NC2C3CC4CC(C3)CC2C4)n1` (stereo not drawn) the Potency was “inactive”.
In the case of `CCN(CC)CCC[C@H](C)Nc1c2ccc(Cl)cc2nc2ccc(OC)cc12`, the Potency is reported as active: 10 µM and active: 5.01 µM.
